Measurements reported in PubChem BioAssay AID1347055 (National Center for Advancing Translational Sciences (NCATS), 2019).
Several values for one entry are separate records, joined by “and”; a condition that tells them apart may be missing. Equal values may be shown once. The whole screen tested about 54,000 compounds, of which about 120 (0.22%) were called active. Inconclusive results, whose numbers are uncertain, are shown with a selection of clear calls. The call rests on the fitted dose curve; in most records, active means well fitted inhibition curve with a large enough effect; inconclusive means small, poorly fitted or top-dose-only effect, or effect the other way; inactive means flat fitted curve, though single readings scatter. Where the call is inconclusive, the potency comes from a doubtful curve fit. Some compounds were tested as several samples or in several runs, with calls that do not always agree.

target: Fumarate hydratase, mitochondrial (Homo sapiens) (UniProt P07954); test: Identification of activators of human fumarate hydratase by quantitative high-throughput screening; conditions: FH coupled MDH/diaphorase resazurin fluorescence, 15 min; series mostly up to 79.9 µM; further: the screen sought activators but most active calls are inhibition curves; nearly all actives have a fitted effect of over 45% in size
Potency means the concentration at half of the fitted maximal effect; tags describe the fitted curve by direction and shape.

UniProt P07954, sequence (P07954 whole entry, looked up): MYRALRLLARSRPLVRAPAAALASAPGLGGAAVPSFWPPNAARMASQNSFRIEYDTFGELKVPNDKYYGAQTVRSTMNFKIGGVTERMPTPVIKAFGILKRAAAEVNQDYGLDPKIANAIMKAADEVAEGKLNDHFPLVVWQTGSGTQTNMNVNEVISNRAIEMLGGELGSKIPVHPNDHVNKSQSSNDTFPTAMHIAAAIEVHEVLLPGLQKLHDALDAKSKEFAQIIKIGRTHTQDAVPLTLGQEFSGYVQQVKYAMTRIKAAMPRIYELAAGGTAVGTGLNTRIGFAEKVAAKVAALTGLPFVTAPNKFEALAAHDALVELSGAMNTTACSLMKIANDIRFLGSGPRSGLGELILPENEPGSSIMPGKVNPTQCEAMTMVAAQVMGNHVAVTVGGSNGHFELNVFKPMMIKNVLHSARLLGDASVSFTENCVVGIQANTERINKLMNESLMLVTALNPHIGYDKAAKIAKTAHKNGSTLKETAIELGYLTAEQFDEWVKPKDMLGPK

Row | Structure (SMILES) | Potency
1 | COc1ccc2c(Sc3ccc(C)cc3)c(C(=O)NC(C)C)[nH]c2c1 | inconclusive: 28.2 µM [inhibitor, single point]
2 | Cc1ccc(Nc2c(C(C)C)c(C)c(C#N)c3nc4ccccc4n23)cc1 | inconclusive: 35.5 µM [inhibitor, partial curve, poor fit]
3 | CCOc1ccc(CCNC(=O)c2nn(C)c3c2CSc2ccccc2-3)cc1 | inconclusive: 35.5 µM [inhibitor, partial curve, poor fit]
4 | O=C1CN(C(=O)COc2ccc(Cl)cc2Cl)C(c2ccccc2)c2cc(F)ccc2N1 (configuration not stated) | inconclusive: 25.1 µM [inhibitor, partial curve, poor fit]
5 | CC(C)(C)C1CCc2nc(NC(=O)Cc3ccccc3)sc2C1 (configuration not stated) | inconclusive: 31.6 µM [inhibitor, single point]
6 | Oc1ccc(NCc2ccccc2OCc2ccc(Cl)cc2)cc1 | inconclusive: 31.6 µM [inhibitor, partial curve]
7 | COc1ccc(Cl)cc1NC(=O)c1c(NCc2cccnc2)sc2c1CCC(C)C2 (configuration not stated) | inactive
8 | CCC(C)C1NC(=O)C2CCCN2C(=O)C(C(C)C)NC(=O)c2ccccc2NC(=O)C(Cc2ccc(O)cc2)NC(=O)C(C)NC(=O)C(C(C)O)NC1=O (configuration not stated) | inactive
9 | Cn1nnnc1SCCNCc1cc(Br)ccc1OCc1ccccc1Cl | inconclusive: 44.7 µM [inhibitor, partial curve, poor fit]
10 | Cc1cccc2c1-c1sc(C(=O)N(C)c3cccc(Cl)c3)cc1CO2 | inconclusive: 35.5 µM [inhibitor, single point]
11 | O=C(CCSCc1ccccc1Cl)NCc1ccc(F)cc1Cl | inconclusive: 31.6 µM [inhibitor, partial curve]
12 | C=C1CCC2[C@](C)(CO)CCC[C@@]2(C)[C@@H]1CCC1=CCOC1=O (some centres not stated) | inactive
13 | CCOC(=O)CSc1nc2ccc(NC(=O)c3cccc(F)c3)cc2s1 | inactive
14 | O=S(=O)(NCc1nc2cccnc2n1Cc1ccccc1Cl)c1ccc2c(c1)CCCC2 | inconclusive: 35.5 µM [inhibitor, single point]
15 | CCOc1ccc(NS(=O)(=O)c2ccc3[nH]c4c(c3c2)CCCCC4)cc1 | inconclusive: 17.8 µM [inhibitor, partial curve]
16 | Cc1ccc2oc(=O)n(CCCOc3ccccc3Cl)c2c1 | inconclusive: 39.8 µM [inhibitor, partial curve]
17 | CCCCN(CCCNC(=O)c1cc(Nc2ccc(OC)c(OC)c2)nc2ccccc12)c1ccccc1 | inconclusive: 22.4 µM [inhibitor, partial curve]
18 | O=C(NCCCN1CCOCC1)c1ccc2c(c1)N(Cc1cccc(Cl)c1)C(=O)c1ccccc1S2 | inconclusive: 35.5 µM [inhibitor, single point]
19 | O=C(CSc1nc(-c2ccc(F)cc2)[nH]c1-c1ccc(F)cc1)Nc1ccc2c(c1)OCO2 | inconclusive: 50.1 µM [inhibitor, partial curve, poor fit]
20 | C=C1C(=O)OC2/C=C(\COC(C)=O)CC/C=C(\C=O)CC(OC(=O)C(C)CC)C12 (configuration not stated) | inactive
21 | CSc1ccc(-c2nnc(NC(=O)c3ccc4c(c3)OCCO4)o2)cc1 | inactive

Row | Structure (SMILES) | Potency
22 | Cc1cccc(C2CC(=O)Nc3cc4c(cc32)OCO4)c1 (configuration not stated) | inactive
23 | COc1ccc(-c2c(C)nn3c(NCCN4CCOCC4)cc(C)nc23)cc1OC | inactive
24 | Nc1ncnc2c1ncn2[C@@H]1O[C@H](CO)[C@@H](O)[C@H]1O | inactive
25 | CCOc1cc(CNC(=O)c2ccc3nc(C(C)C)oc3c2)cc(OCC)c1OCC | inconclusive: 28.2 µM [inhibitor, partial curve]
26 | CC[C@H](C)[C@H](NC(=O)[C@H]([C@@H](C)CC)N(C)C(C)=O)C(=O)N[C@H](C(=O)N[C@@H](CC(C)C)C(=O)[C@@]1(C)CO1)[C@@H](C)O | inactive
27 | COc1ccc(C(=O)Nc2cc(-c3nc4ccccc4s3)ccc2OC)cc1 | inactive
28 | CCOc1ccc(-c2nc(CSCC(=O)NCCc3ccc(OCC)c(OCC)c3)c(C)o2)cc1 | inconclusive: 35.5 µM [inhibitor, single point]
29 | CSc1nc2c(sc3ccccc32)c(=O)n1Cc1ccc(C)cc1 | inconclusive: 50.1 µM [inhibitor, single point]
30 | CCOc1ccc(S(=O)(=O)NCCc2c(C)[nH]c3c(Cl)cccc23)cc1C | inconclusive: 25.1 µM [inhibitor, partial curve]
31 | CN(C)C(=S)SC(=S)N(C)C | inactive
32 | O=C(Nc1nc2ccc(F)cc2s1)c1nc(S(=O)(=O)Cc2ccccc2F)ncc1Cl | inactive
33 | CN(c1ccc(NC(=O)Nc2ccccc2)cc1)S(=O)(=O)c1cnn(-c2ccc(F)cc2)c1 | inactive
34 | CC(C)(C)c1ccc(OCC(=O)NCC2(N3CCOCC3)CCCCC2)cc1 | inconclusive: 31.6 µM [inhibitor, partial curve]
35 | C[n+]1cc2c3c(ccc2c2ccc4cc5c(cc4c21)OCO5)OCO3 | active: 15.8 µM
36 | O=C(Cn1cc(SCc2ccc(Br)cc2)c2ccccc21)N1CCCCC1 | inconclusive: 39.8 µM [inhibitor, partial curve, poor fit]
37 | CCCC(=O)N1CCc2cc(OC)c(OC)cc2C1COc1ccc2c(C)cc(=O)oc2c1 (configuration not stated) | inconclusive: 25.1 µM [inhibitor, single point]
38 | Cc1ccn2c(Nc3ccccc3C)c(-c3ccc(N4CCOCC4)cc3)nc2c1 | inconclusive: 50.1 µM [inhibitor, single point]
39 | Cc1ccc(C)c(Nc2nnc(-c3ccc(C)c(S(=O)(=O)N4CCN(C)CC4)c3)c3ccccc23)c1 | inconclusive: 35.5 µM [inhibitor, partial curve, poor fit]
40 | CNC12CC3C[C@@](C)(C1)C[C@](C)(C3)C2 | inconclusive: 0.178 µM [activator, full curve, poor fit]
41 | CCOc1ccc(NC(=O)CSc2oc(-c3cccs3)nc2S(=O)(=O)c2ccc(C)cc2)cc1 | inactive
42 | COc1ccc(-c2ccc3ncc4c(c3c2)n(-c2ccc(N3CCNCC3)c(C(F)(F)F)c2)c(=O)n4C)cn1 | inconclusive: 25.1 µM [inhibitor, partial curve] and inconclusive: 10 µM [inhibitor, partial curve]
